# Laboratory results reported in PubChem BioAssay AID1671193 (National Center for Advancing Translational Sciences (NCATS), 2021).
# Out of some 150,000 compounds screened, about 180 (0.12%) were called active. Inconclusive means that the source gave no clear call. Such entries were picked first, then a sample of the others. Calls come from the whole dose curve; as a rule, active = well fitted cell-killing curve with a large enough effect; inconclusive = small, poorly fitted or top-dose-only effect, or effect the other way; inactive = flat fitted curve, though single readings scatter. Potencies of inconclusive entries are doubtful fits and often do not repeat.
# Test: GF-AFC viability counterscreen for inhibitors of alpha-synuclein gene (SNCA) expression; note: nearly all actives have a fitted effect of over 30% in size
# Details: HEK-293-SNCA-luc viability, GF-AFC fluorescence, 24 h; activity change, negative = cytotoxicity: at 57.1 µM (top of the series) unless noted
# From the text: Assay Submitter (PI): Daniel R. Scoles Ph.D.
# Department of Neurology, University of Utah, Salt Lake City, Utah
# Accumulation of alpha-synuclein is a main underlying pathological feature of Parkinson's disease (PD) and alpha-synucleinopathies, for which lowering expression of the alpha-synuclein gene (SNCA) is a potential therapeutic avenue. Using a cell-based luciferase reporter of SNCA expression we performed a quantitative high throughput screen (qHTS) of 155,885 compounds in dose response. The screening assay was generated using genome editing to insert the luciferase gene downstream and in frame of the SNCA gene in HEK-293 cells (1). A viability counterscreen using GF-AFC was used to eliminate cytotoxic and false positive compounds. After in silico analysis (clustering, removal of frequent hitter nuisance chemotypes), inhibitor compounds from the primary screen were selected for follow up and re-tested at 11-doses in the SNCA-luc cells (luciferase and GF-AFC confirmation), and in CMV-luc expressing cell line to flag general transcriptional repressors.
# Described herein are the results of the GF-AFC viability counterscreen for SNCA inhibitors; inactivity (no decrease in fluorescence signal, not cytotoxic) is the desired output for this assay.
# 1. Dansithong, W., Paul, S., Scoles, D. R., Pulst, S. M., and Huynh, D. P. (2015) Generation of SNCA Cell Models Using Zinc Finger Nuclease (ZFN) Technology for Efficient High-Throughput Drug Screening. PLoS ONE 10, e0136930.
# SEQUENCE No. (e.g., 1, 2, 3, etc.); […] (e.g., Cells, Incubation, Reagent, etc.); VALUE; DESCRIPTION
# 1; Cells; 4 uL; Dispense 1500 HEK-293-SNCA-luc cells/well into Greiner 1536-well white / solid bottom tissue culture treated plate. The plate was covered with metal lids with gas-exchange holes.
# 2; Incubate; 24 hours; Incubate at 37C, 5% CO2, 95% RH.
# 3; Compounds; 23 nL; Compounds and controls were transferred via a Kalypsys Pin Tool (Wako USA) equipped with a 1536-slotted pin array. The plate was covered with metal lids with gas-exchange holes.
# 4; Incubate; 24 hours; Incubate at 37C, 5% CO2, 95% RH.
# 5; Dispense; 1 uL; Dispense Gly-Phe-7-amino-4-trifluoromethylcoumarin (GF-AFC, prepared at 125 uM in PBS) was added. The plate was covered with metal lids with gas-exchange holes.
# 6; Incubate; 30 min; Incubate at 37C, 5% CO2.
# 7; Detector; Fluorescence; Measure fluorescence with ViewLux microplate reader (PerkinElmer) equipped with 405/10 excitation and 540/25 emission filters.
# 8; Dispense; 3 uL; Dispense ONE-Glo ([…]) lucifase detection reagent was added to each well. Plates were covered with metal lids with gas-exchange holes.
# 9; Incubate; 15 min; Incubate at room temperature.
# 10; Detector; Luminescence; Measure luminescence with ViewLux microplate reader (PerkinElmer) equipped with clear filters.
# NOTES (numbers refer to sequence above)
# 1; HEK-293-SNCA-luc were cultured and suspended in phenol-red free DMEM (4.5 g/L glucose, 25 mM HEPES, cat #21063 (Thermo)).
# 3; Compounds were added to the assay plate in an 11-point intra plate dose response, 1:3 titration in DMSO with a final concentration range of […]. Vehicle-only plates, with DMSO being pin-transferred to every well, were inserted at the beginning of screening runs to confirm expected assay performance. Activity was normalized to wells containing medium only (-100% activity, full inhibition) and SNCA-luc cells treated with DMSO vehicle control (0% activity), contained on the same plate as test samples.
# 10; Signals were analyzed, and dose-response curves were fit using the Hill equation. Compounds in curve classes -1.1, -1.2, -2.1, -2.2 in the SNCA-luc assay were considered active. Compounds were eliminated from further consideration if also active (curve class -1.1, -1.2, -1.3, -1.4, -2.1, -2.2, -2.3, -2.4) in the GF-AFC cytotoxicity assay.
# Potency is the fitted concentration of half-maximal effect; tags give direction and shape of the fitted curve.
SMILES,"activity change, negative = cytotoxicity",Potency
COc1ccc(C2Cn3nnc(-c4nc(-c5cccc(Cl)c5)no4)c3CO2)cc1 (configuration not stated),inactive: 8.18%,
O=C(Nc1cccc(Nc2ncc(Br)c(NCCc3cnc[nH]3)n2)c1)N1CCCC1,,"inconclusive: 24.1 µM [cytotoxic, single point]"
CN(CC1CCN(CCc2cccc(F)c2)CC1)C(=O)c1cn2cccnc2n1,,"inconclusive: 10 µM [cytotoxic, full curve, poor fit]"
Cc1ccc(NC(=O)c2cc(CN3CCOCC3)on2)cc1Cl,,"inconclusive: 15.8 µM [cytotoxic, partial curve]"
COc1cc(-c2nc3ccc(Cl)cn3c2Nc2ccc3c(c2)OCO3)ccc1O,,"inconclusive: 22.4 µM [cytotoxic, partial curve, poor fit]"
COc1ccc(N2CCN(C(=O)c3cn(C)c4ccc(S(=O)(=O)N(C)C5CCCCC5)cc4c3=O)CC2)cc1,,"inconclusive: 17.8 µM [cytotoxic, partial curve, poor fit]"
CNC(C)C(=O)NC(C(=O)N1CCCC1c1nc(C(=O)c2ccc(F)cc2)cs1)C1CCCCC1 (configuration not stated),,"inconclusive: 29.9 µM [cytotoxic, single point]"
COc1ccc(NC(=O)N2CCCC(c3noc(COc4ccccc4)n3)C2)c(C)c1 (configuration not stated),inactive: -29.5%,
O=C(C1CCOCC1)N1CCC2(CN[S+](=O)([O-])c3cnccc3O2)C1 (configuration not stated),inactive: 4.72%,
CN(C)CCCn1cc(C2=C(c3c[nH]c4ccccc34)C(=O)NC2=O)c2ccccc21,,"inconclusive: 18.9 µM [cytotoxic, partial curve, poor fit]"
O=C1CC(c2ccccc2)N(C(=O)CNS(=O)(=O)c2ccc3c(c2)CCC3)CCCCCN1 (configuration not stated),,"inconclusive: 12.6 µM [cytotoxic, partial curve]"
Cc1ccc(NC(=O)N2Cc3[nH]cnc3C[C@H]2c2nc(-c3ccc(C)cc3)no2)cc1,,"inconclusive: 14.1 µM [cytotoxic, partial curve]"
COc1ccc(CCC(=O)NCc2nc3cccnc3n2Cc2cccc(OC)c2)cc1,,"inconclusive: 28.2 µM [cytotoxic, single point]"
Cc1cccc(N(C)C(=O)C2CCC(CNS(=O)(=O)c3cccc4nsnc34)CC2)c1 (configuration not stated),,"inconclusive: 12.6 µM [cytotoxic, partial curve, poor fit]"
CCc1cccc(NC(=O)Cn2c(=O)n(CC3CCC(C(=O)NC)CC3)c(=O)c3sccc32)c1 (configuration not stated),,"inconclusive: 28.2 µM [cytotoxic, single point]"
Cc1cc(F)ccc1NC(=O)CN1C(=O)NC2(CCC(C(C)(C)C)CC2)C1=O (configuration not stated),inactive: 2.68%,

SMILES,"activity change, negative = cytotoxicity",Potency
COC(=O)CNC(=O)N1CCC(Cc2noc(-c3ccc(OC)cc3)n2)C1 (configuration not stated),,"inconclusive: 39.8 µM [cytotoxic, single point]"
O=C(CCC1CCCC1)NC1CCN(c2cn[nH]c(=O)c2)CC1,,"inconclusive: 39.8 µM [cytotoxic, single point]"
COc1ccc(-n2c(CC3C(=O)Nc4ccc(C)cc43)nc3ccccc3c2=O)cc1 (configuration not stated),,"inconclusive: 20 µM [cytotoxic, partial curve, poor fit]"
CN(C)c1cccc(C(=O)N2CCCC(n3cc(-c4nc(-c5ccccc5)no4)nn3)C2)c1 (configuration not stated),inactive: -17.7%,
CC1=C[C@@H](CNC(=O)c2ccccc2)[C@H](C(C)C)C[C@H]1Cc1nc2ccc(C)cc2[nH]1,,"inconclusive: 31.6 µM [cytotoxic, single point]"
COc1ccc(NC(=O)CCCS(=O)(=O)c2nc(-c3ccccc3OC)cc(C(F)(F)F)n2)c(OC)c1,,"inconclusive: 39.8 µM [cytotoxic, single point]"
Cn1cccc1C(=O)N[C@@H]1CN(c2ncccn2)C[C@H]1CO,inactive: 5.72%,
Cn1c(=O)c2c(ncn2CCO)n(C)c1=O,,"inconclusive: 1 µM [rising, partial curve, poor fit]"
COc1ccc(N2CC(c3noc(-c4ccc(C(C)(C)C)cc4)n3)CC2=O)cc1OC (configuration not stated),inactive: -18.2%,
O=C(NC1C[C@H]2CC[C@@H](C1)N2C(=O)c1ccn[nH]1)c1ccncc1 (some centres not stated),,"inconclusive: 4.47 µM [cytotoxic, single point]"
O=C(c1ccc2c(c1)N(Cc1ccccc1F)C(=O)c1ccccc1S2=O)N1CCC(Cc2ccccc2)CC1 (configuration not stated),,"inconclusive: 35.5 µM [cytotoxic, partial curve, poor fit]"
C[C@@]1(c2cc(-c3cncnc3)c(F)cc2F)CCSC(N)=N1,,inactive
Cc1ccc(NC(=O)Cn2c(-c3ccccc3)nc(C)c(CCO)c2=O)cc1Cl,,"inconclusive: 17.8 µM [cytotoxic, partial curve, poor fit]"
CCc1nc2c(c(-c3ccc(Cl)cc3)n1)CN([S+](=O)([O-])c1ccc(C)cc1)CC2,inactive: -5.51%,
Cc1ccc(-n2cc(CN3CCn4nc(C(O)c5nccn5C)cc4C3)cn2)cc1 (configuration not stated),inactive: 7.01%,
Cc1c(C(=O)N2CCC(C(=O)Nc3ccc(F)c(Cl)c3)CC2)sc2nc[nH]c(=O)c12,,"inconclusive: 35.5 µM [cytotoxic, single point]"
